# This is one part of the list.
# Molecular target: T1, OsWOX13 (Oryza sativa, UniProt Q5QMM3 1-267)
# T1 sequence: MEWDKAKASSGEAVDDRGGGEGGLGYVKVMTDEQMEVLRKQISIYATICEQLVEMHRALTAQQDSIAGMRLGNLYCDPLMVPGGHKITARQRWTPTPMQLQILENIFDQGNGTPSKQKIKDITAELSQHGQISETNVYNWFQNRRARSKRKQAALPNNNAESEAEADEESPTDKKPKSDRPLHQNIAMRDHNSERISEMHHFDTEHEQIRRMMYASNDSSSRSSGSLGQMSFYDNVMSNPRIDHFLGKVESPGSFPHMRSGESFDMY
# Assay: protein-binding microarray (RPBM); PBS, 2% BSA, 51.3 ng/ul salmon testes DNA, 50 uM zinc acetate, 200 nM TF, 25 C, 1 h; high values mean tight binding
# Conditions: protein: recombinant; tags: N-terminal polyhistidine and DsRed monomer fusion (pET32a); label: CyDye5-dUTP incorporated in the synthesized complementary strand; 3' TTTTT single-stranded linker to array surface; dsDNA, one strand shown
# Procedure, shortened: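 The binding signal for each feature is its fluorescence intensity in arbitrary units. An Axon 4000B scanner was used to read a custom Agilent array that had been made double-stranded with Cy5-dUTP primer extension, blocked with 2% BSA, incubated at 25 °C for 1 h with 200 nM protein in PBS, 2% BSA, salmon testes DNA and 50 µM zinc acetate, and washed. The protein was an N-terminal polyhistidine–DsRed transcription factor fusion from E. coli BL21-CodonPlus, purified on Ni–NTA.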
row,Sequence,binding signal
1,TTAAATTTAATTAAATTTAAAGCAGTTTGATTTTGACCAACGGAGTCACCTAGTGCAG,56000 fluorescence intensity (a.u.)
2,GGTCGATTGGATTCCCCTTCGCTGGCATCCGCTCGTCCAGCGGAGTCACCTAGTGCAG,3340 fluorescence intensity (a.u.)
3,AAGTATATTAACTAATTTAGTTAGTTAAGAGTAGACTAAACGGAGTCACCTAGTGCAG,5440 fluorescence intensity (a.u.)
4,AAGTTATTGATGTATGAGATTTATTTTGTTGGAAGATAATCGGAGTCACCTAGTGCAG,7910 fluorescence intensity (a.u.)
5,ATGATTTGAGTCAATAAGTGATGTATTTCCAGAGAGAGAACGGAGTCACCTAGTGCAG,29400 fluorescence intensity (a.u.)
6,GCATGATTACATCATTGCACTGGACTCAATTGGTAATGCACGGAGTCACCTAGTGCAG,20700 fluorescence intensity (a.u.)
7,TTCTGGAAATGGAGGATGATTTGCTGTGAGGATATAGTTGCGGAGTCACCTAGTGCAG,7980 fluorescence intensity (a.u.)
8,ATGCATGTTCAATTGATTGTCATGTTATGTTCATTATAGACGGAGTCACCTAGTGCAG,15100 fluorescence intensity (a.u.)
9,TAAATTAATTAGGCTTAATAAATTCGTCGACTACACTTAACGGAGTCACCTAGTGCAG,30000 fluorescence intensity (a.u.)
10,CTACTAATTTAGTATGATAGGTTTATTTTGGTAATCAAGCCGGAGTCACCTAGTGCAG,30000 fluorescence intensity (a.u.)
11,TTGATTATTTCAGTTCATGACTCGGCATAGCACCAGCAAACGGAGTCACCTAGTGCAG,7090 fluorescence intensity (a.u.)
12,AGTTCAGATAAGCATCATGATTGGTGTTCAGATATCCAGACGGAGTCACCTAGTGCAG,9740 fluorescence intensity (a.u.)
13,CTGGATTGATTGGGAGTGTTGGGTTTCGGGCTAGATCTGGCGGAGTCACCTAGTGCAG,65200 fluorescence intensity (a.u.)
14,TCTTCATTAATTGGACTAATTACAGATGGCTGTTTAGGAACGGAGTCACCTAGTGCAG,45300 fluorescence intensity (a.u.)
15,TATAATCAAAGGTAACTGTAATATTATTCAATTTAAAGCACGGAGTCACCTAGTGCAG,4560 fluorescence intensity (a.u.)
16,CCCTTAACTGACGGAGAGCGACGCCGCAACACCACATCCACGGAGTCACCTAGTGCAG,31700 fluorescence intensity (a.u.)
17,CTACATGTAATTTATATCAACATTCTAGTGAATAATCTTTCGGAGTCACCTAGTGCAG,3800 fluorescence intensity (a.u.)
18,CAAATCAATCCGTTTCATGCATCATCATCCTCCTGTCGATCGGAGTCACCTAGTGCAG,4790 fluorescence intensity (a.u.)
19,TGTTAATTAACCTTTACCTTGTGTGCACGACAACTCATACCGGAGTCACCTAGTGCAG,37100 fluorescence intensity (a.u.)
20,ACGAATCTAATGAGCCTAATTAATCCATGATTAGCCTATGCGGAGTCACCTAGTGCAG,21200 fluorescence intensity (a.u.)
21,TTTATATAATTTCAAATTTTGTTACAGCATCAAAGGTTATCGGAGTCACCTAGTGCAG,11200 fluorescence intensity (a.u.)

row,Sequence,binding signal
1,AGTTTGATCAAATTTATAGAAAATATATTATTATTTTCAACGGAGTCACCTAGTGCAG,5640 fluorescence intensity (a.u.)
2,TAGATTGACTATAGATGAATTGGAGCTAGTAATGGTCAATCGGAGTCACCTAGTGCAG,25200 fluorescence intensity (a.u.)
3,TTATAGATTATAATAATCTATCGTAATAATCTACTTATTTCGGAGTCACCTAGTGCAG,8120 fluorescence intensity (a.u.)
4,CCATAATTACAGTCTGAAGATTTTATGCAGTCCAATAACCCGGAGTCACCTAGTGCAG,23300 fluorescence intensity (a.u.)
5,CCTGATTGACAGAAGGAGATACCCCAACAACAAAAGAATGCGGAGTCACCTAGTGCAG,48800 fluorescence intensity (a.u.)
6,CTTCACTCAATTGGACAGTCTACTGGTGACATCGATGAACCGGAGTCACCTAGTGCAG,4340 fluorescence intensity (a.u.)
7,GTTTGCACTAATTTGACACGAACACTTATTTCACACGTGGCGGAGTCACCTAGTGCAG,9930 fluorescence intensity (a.u.)
8,ATTCATTCATTCAAATTACAGCATATATGAGTCATACAACCGGAGTCACCTAGTGCAG,3360 fluorescence intensity (a.u.)
9,ATACATTAATTGATTTAGGTGGATTTATCATCAGAGCCACCGGAGTCACCTAGTGCAG,31200 fluorescence intensity (a.u.)
10,ATCATAATGTAAACATGAATGTAATTTGCTTGCCCTATGCCGGAGTCACCTAGTGCAG,10100 fluorescence intensity (a.u.)
11,ACAACATTCCAATTGATTAATGTATGGCTGATAACCTATACGGAGTCACCTAGTGCAG,8740 fluorescence intensity (a.u.)
12,AGTGATTAGCCGGATGACGAAGCTTCGTGCGGACGCGGCCCGGAGTCACCTAGTGCAG,34500 fluorescence intensity (a.u.)
13,GCAGGATTGGAATTCCCTTCCCCTTCTGAAACCAGCATAACGGAGTCACCTAGTGCAG,9320 fluorescence intensity (a.u.)
14,TTAATTGTATTAATATTATATGGTCTAGTTAAGGTGAAATCGGAGTCACCTAGTGCAG,3350 fluorescence intensity (a.u.)
15,TCCAAACCCCAATCTTGATTTGTCATCTGGCCGGTTACCTCGGAGTCACCTAGTGCAG,5700 fluorescence intensity (a.u.)
16,CATCATCAAATTAATAGATAGACAGAAAGTATATATCGACCGGAGTCACCTAGTGCAG,34300 fluorescence intensity (a.u.)
17,CACAATTGGAATTTACTAAACCGGGTCAAGAAAGTTGAGACGGAGTCACCTAGTGCAG,8910 fluorescence intensity (a.u.)
18,AGTTGGTGATTGAATATGCAGTTATCATGTCATGCATAATCGGAGTCACCTAGTGCAG,32500 fluorescence intensity (a.u.)
19,TTATCTATTATATAATTTATTATTATTATTTTGTCGCCTCCGGAGTCACCTAGTGCAG,9180 fluorescence intensity (a.u.)
20,ACATATCTTATCTTAAGATTGACGAAGTCACCACGACTCCCGGAGTCACCTAGTGCAG,6460 fluorescence intensity (a.u.)
21,ATAATTGATTCCTGCTTCTTGAAAACAATTTGTTTGCTTTCGGAGTCACCTAGTGCAG,47000 fluorescence intensity (a.u.)
